Experimental data published in PubChem BioAssay AID1508623 (National Center for Advancing Translational Sciences (NCATS), 2021).
The whole screen tested about 48,000 compounds, of which about 450 (0.94%) were called active. Inconclusive results (about 19%) are left out. The call rests on the fitted dose curve; in most records, active means well fitted inhibition curve with a large enough effect; inconclusive means small, poorly fitted or top-dose-only effect; inactive means no such curve, though single readings can be large or run the other way. This is one part of the list.

Assay: Primary qHTS for Identification of Small Molecule Inhibitors of Huntingtin Promoter Activity; further: nearly all actives have a fitted effect of over 50% in size
Settings: HEK293 HTT promoter firefly luciferase reporter (activity 0% = vehicle and -100% = no light), 24 h; series mostly up to 57.5 µM; activity change, negative = inhibition: at the top concentration
Procedure, shortened: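 HEK293 luciferase promoter-reporter cells (2,500/well) plated 24 h, then compounds added at up to 57.5 uM final for 24 h at 37 °C. Firefly luminescence by Dual-Glo, normalized to vehicle (0%) and zero RLU (-100%).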
Potency means the concentration at half of the fitted maximal effect.

Compound	activity change, negative = inhibition	Potency
Fc1ccc(NCc2ccccc2-c2nnc(-c3ccccc3Cl)o2)cc1Cl	inactive: 57.3%	–
CCOc1ccc(C(c2c(O)cc(C)n(CCOC)c2=O)N2CCN(c3ccc(F)cc3)CC2)cc1 (stereo unspecified)	inactive: -7.82%	–
Cc1cccc2cc(-c3nc(-c4cccs4)no3)c(=O)oc12	inactive: 19.8%	–
Cc1sc2ncn(CC(=O)N3CCN(c4cccc(Cl)c4)CC3)c(=O)c2c1S(=O)(=O)N1CCC(C)CC1	inactive: 3.42%	–
O=C(Nc1ccccc1Br)N[C@@H]1CCN(c2ccc(C(F)(F)F)cn2)C1	inactive: -3.96%	–
CCN(CC)C(=O)Cn1c(=O)n(CCCCCC(=O)NCc2ccc(C)cc2)c(=O)c2sccc21	inactive: -13.9%	–
CCOc1ccc(-n2c(=O)c3c(C)c(C)sc3n(Cc3ccc(C(C)(C)C)cc3)c2=O)cc1	inactive: -22.6%	–
CC(=O)N1CCc2c(sc3c2c(=O)n(-c2cc(Cl)ccc2C)c(=O)n3C)C1	inactive: -9.42%	–
CCCCNC(=O)Cn1nc(N2CCN(c3ccccc3OC)CC2)ccc1=O	inactive: 9.05%	–
COc1cccc(C(=O)N2CCc3cc(OC)c(OC)cc3C2COc2ccc3c(C)cc(=O)oc3c2)c1 (stereo unspecified)	inactive: -5.15%	–
CCn1cc(S(=O)(=O)c2cc(C)cc(C)c2)c(=O)c2cc(F)c(N3CCN(c4ccccc4)CC3)cc21	inactive: -25.5%	–
COc1ccc(OCC(=O)N2CCN(C(=O)c3cccc(OC)c3OC)CC2)cc1	inactive: 8.43%	–
CCCCN(C(=O)CCn1c(=O)oc2ccccc21)c1ccccc1	inactive: -9.61%	–
CCOc1ccc(-c2cc(CCCC(=O)NCCc3ccc(SC)cc3)no2)cc1	–	active: 794 nM
COCCn1c(C)cc(O)c(C(c2ccccc2Cl)N2CCN(c3ccccc3)CC2)c1=O (stereo unspecified)	inactive: -11.6%	–
O=C(NCC(c1ccco1)S(=O)(=O)c1cccs1)c1c(F)cccc1F (stereo unspecified)	inactive: -3.08%	–
CCN(CC)C(=O)c1sc2c(c1C)c(=O)n(Cc1ccccc1)c(=O)n2Cc1c(C)cc(C)cc1C	inactive: -31.2%	–
Cc1cccc(NC(=O)Cn2c(=O)n(CC3CCC(C(=O)NCCc4ccccc4)CC3)c(=O)c3ccccc32)c1C (stereo unspecified)	inactive: -12.6%	–
Cc1ccc2[nH]c(C)c(CCNC(=O)c3cc4cc(Br)ccc4oc3=O)c2c1	inactive: -4.12%	–
O=C(NCC(c1cccnc1)N1CCc2ccccc21)c1cccc(F)c1 (stereo unspecified)	inactive: -30.2%	–
CCOC(=O)c1ccc(NC(=O)c2c(NCc3ccc(OC)c(OC)c3OC)sc3c2CCC(C)C3)cc1 (stereo unspecified)	inactive: -19.9%	–
CCOc1ccccc1CNC(=O)CCCn1c(=O)c2cccn2c2ccc(F)cc21	inactive: -22.3%	–
Cc1ccc(CNC(=O)c2cc(NS(=O)(=O)c3ccc(C)cc3)ccn2)cc1	inactive: -8.11%	–

Compound	activity change, negative = inhibition	Potency
COC(=O)c1sc2cccc(F)c2c1S(=O)(=O)NCc1ccccc1Cl	inactive: 8.37%	–
COc1ccc(CCNCc2c(C(=O)O)c(C)n(Cc3cccc(C)c3)c2C)cc1OC	inactive: -13.9%	–
Cn1c(Oc2cccc(Cl)c2)nc2c1c(=O)n(Cc1ccccc1Cl)c(=O)n2C	inactive: -8.67%	–
Cc1cc(C)cc(NC(=O)C2CCN(c3nnc(-n4c(C)ccc4C)s3)CC2)c1	inactive: -22.1%	–
CCOC(=O)c1scc(-c2ccc(C)cc2)c1S(=O)(=O)N1CCN(c2ccccc2)CC1	inactive: -23.7%	–
CCc1cccc(NC(=O)CN(C)S(=O)(=O)c2ccc3c(c2)n(C)c(=O)c(=O)n3C)c1	inactive: -15.3%	–
CCOc1cc(C(=O)Nc2ccc3nc(N4CCN(C)CC4)cc(C)c3c2)cc(OCC)c1OCC	inactive: -29.8%	–
COc1ccc(-c2noc(COc3ccc(C)cc3C)n2)cc1OC	inactive: -24%	–
COc1ccc(-n2c(SCC(=O)Nc3ccc4c(c3)OCO4)nc3c([nH]c4ccccc43)c2=O)cc1	inactive: -14.1%	–
CC(=O)c1ccc(NS(=O)(=O)c2ccc3[nH]c(=O)[nH]c3c2)cc1	inactive: 41.2%	–
COc1ccc(S(=O)(=O)N(CC(=O)Nc2ccc(C)cc2)c2ccc(C)cc2)cc1OC	inactive: -4.81%	–
COc1cccc(CNC(=O)C2=C(C)C(=O)OC23CCCCCC3)c1	inactive: -13.9%	–
CCOc1ccc(C(=O)NCC(c2ccc3c(c2)OCO3)N2CCN(C)CC2)cc1 (stereo unspecified)	inactive: -6.82%	–
CCOc1ccc(NC(=O)N2CCC(n3c(C)nc4cccnc43)CC2)cc1	inactive: 0%	–
Cc1ccc(-c2nnc(Nc3ccc(O)cc3)c3ccccc23)cc1S(=O)(=O)NC(C)(C)CO	inactive: -19%	–
CCOc1ccc(S(=O)(=O)N(CC(=O)Nc2ccc(OC)c(Cl)c2)c2ccccc2)cc1	inactive: -18.7%	–
COc1cc2c(cc1OC)C(COc1ccccc1OC)N(C(=O)c1ccc(S(=O)(=O)N(C)C)cc1)CC2 (stereo unspecified)	inactive: -9.69%	–
COc1ccc(Nc2nc3c(S(=O)(=O)c4ccc(C)cc4)nnn3c3ccsc23)cc1Cl	inactive: -5.64%	–
Cc1ccc(/C=C/c2onc(C)c2S(=O)(=O)N2CCC(C(=O)N3CCN(c4cc(C)ccc4C)CC3)CC2)cc1	inactive: -24%	–
O=C(NOCC(O)CO)c1cc(Br)c(F)c(F)c1Nc1ccc(I)cc1F (stereo unspecified)	inactive: -12.1%	–
COc1cc(-c2nc(-c3ccccc3)c(-c3ccc(Br)cc3)[nH]2)cc(OC)c1O	inactive: -14.8%	–
COC(=O)c1cc2sc(Cl)cc2n1Cc1nc(-c2ccccc2C)oc1C	inactive: -20.4%	–
CC1CN(C(=O)N2CCC(C(=O)NCc3cccs3)CC2)c2ccccc2O1 (stereo unspecified)	inactive: -9.81%	–
